Test results taken from article PMC4336329 (PLoS ONE, 2015).
The whole screen tested about 310,000 compounds, of which about 2,200 (0.71%) showed an effect of 50% or more. The effect is printed as a negative number. This is one part of the list.

The compounds below were run against human ether-à-go-go-related gene (hERG) potassium channel (human, UniProt Q12809) (assay: primary screen, population patch clamp on CHO cells stably expressing hERG).
Sequence of human ether-à-go-go-related gene (hERG) potassium channel (Q12809 whole entry, looked up): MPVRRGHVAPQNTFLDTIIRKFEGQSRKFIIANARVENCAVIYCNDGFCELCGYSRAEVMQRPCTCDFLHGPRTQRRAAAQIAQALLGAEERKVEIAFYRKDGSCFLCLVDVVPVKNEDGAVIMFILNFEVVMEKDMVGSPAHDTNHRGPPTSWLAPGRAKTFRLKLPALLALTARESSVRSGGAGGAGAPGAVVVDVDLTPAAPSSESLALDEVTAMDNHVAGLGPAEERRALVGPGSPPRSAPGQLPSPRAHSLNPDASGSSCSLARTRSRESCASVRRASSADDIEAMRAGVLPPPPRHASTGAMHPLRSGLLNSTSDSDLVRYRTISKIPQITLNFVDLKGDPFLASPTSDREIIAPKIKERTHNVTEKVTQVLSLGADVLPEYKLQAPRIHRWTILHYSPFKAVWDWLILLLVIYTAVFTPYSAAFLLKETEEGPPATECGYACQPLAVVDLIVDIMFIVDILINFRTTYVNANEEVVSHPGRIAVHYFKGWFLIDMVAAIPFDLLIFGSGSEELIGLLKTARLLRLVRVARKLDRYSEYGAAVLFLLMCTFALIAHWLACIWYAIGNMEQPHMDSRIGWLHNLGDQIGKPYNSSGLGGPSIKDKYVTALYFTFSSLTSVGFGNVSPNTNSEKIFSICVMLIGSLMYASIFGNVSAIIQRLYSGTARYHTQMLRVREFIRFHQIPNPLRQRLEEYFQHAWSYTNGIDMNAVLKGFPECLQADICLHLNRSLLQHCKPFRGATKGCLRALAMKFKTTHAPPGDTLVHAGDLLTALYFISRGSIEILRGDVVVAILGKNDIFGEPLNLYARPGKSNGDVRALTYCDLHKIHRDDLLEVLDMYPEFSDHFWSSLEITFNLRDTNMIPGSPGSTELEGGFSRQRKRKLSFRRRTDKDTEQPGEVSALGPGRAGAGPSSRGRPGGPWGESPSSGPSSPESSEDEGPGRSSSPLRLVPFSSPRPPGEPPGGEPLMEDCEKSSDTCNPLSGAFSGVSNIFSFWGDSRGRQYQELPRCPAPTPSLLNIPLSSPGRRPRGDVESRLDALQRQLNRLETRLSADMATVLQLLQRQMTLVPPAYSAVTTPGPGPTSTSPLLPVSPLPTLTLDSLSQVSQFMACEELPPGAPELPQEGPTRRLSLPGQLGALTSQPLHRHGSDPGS

Going from `COc1cc(/C=C2/C(=N)N3N=C(C(C)C)SC3=NC2=O)ccc1OS(=O)(=O)c1ccccc1` to `COc1ccc(/C=C2\C(=N)N3N=C(CC(=O)N4CCOCC4)SC3=NC2=O)cc1`, the “hERG current change (%, negative = inhibition) at 1uM” value falls from 13.5% to 11.4%.

First: COC(=O)Nc1nnc(COc2ccccc2)s1
Second: Cn1nc(C(=O)Nc2nnc(C3CC3)s2)c2ccccc2c1=O
The “hERG current change (%, negative = inhibition) at 1uM” value of the first is lower: 11.3% for the first, 17.9% for the second.

Compared with `CCOC(=O)N/N=C(/c1ccccc1)C1CCCCC1`, `Cc1ncc(CN2CCC(n3nccc3NC(=O)c3ccccc3)CC2)s1` is lower in “hERG current change (%, negative = inhibition) at 1uM” value: 15.5% for the first, 5.73% for the second.

Going from `O=C(Nc1ccccc1F)c1ccc(CNS(=O)(=O)c2cccc(C(F)(F)F)c2)cc1` to `Cc1ccc(CN(CC(=O)N/N=C/c2ccccc2[N+](=O)[O-])S(=O)(=O)c2ccc(C)cc2)cc1`, the “hERG current change (%, negative = inhibition) at 1uM” value falls from 2.38% to 1.49%.

First: C/C(=N\OCc1cccc(C(=O)O)c1)c1ccc(Cl)cc1
Second: COc1ccc(OCc2cccc(C(=O)O)c2)cc1
The “hERG current change (%, negative = inhibition) at 1uM” value of the first is lower: 7.01% for the first, 13.7% for the second.

Compared with `CCOc1ccc(-c2nc(N)ncc2-c2ccc(OC)cc2)c(O)c1`, `CCNC(=O)COC(=O)C1CCC(=O)N(c2ccc(OC)cc2)C1c1ccc(OC)cc1` (stereo not shown) is lower in “hERG current change (%, negative = inhibition) at 1uM” value: 5.69% for the first, -6.28% for the second.

Compared with `CCOC(=O)C1(Cc2ccc(OC)cc2)CCN(C(=O)c2cc(C)on2)CC1`, `COc1ccc2nc(SCC(=O)Nc3cc(C)on3)[nH]c2c1` is lower in “hERG current change (%, negative = inhibition) at 1uM” value: 4.83% for the first, 0.913% for the second.

Compared with `CC(=O)Nc1sc2c(c1C#N)CCCC2`, `Cc1nc(NC(=O)C2CC2)sc1C(=O)N1CCCCC1` is lower in “hERG current change (%, negative = inhibition) at 1uM” value: 11.9% for the first, 4.1% for the second.

Compared with `CS(=O)(=O)N1CCC(Oc2ccccc2C(=O)N2CCNC(=O)C2)CC1`, `COCCN(C(=O)c1ccccc1OC1CCN(S(C)(=O)=O)CC1)C(C)C` is higher in “hERG current change (%, negative = inhibition) at 1uM” value: 6.37% for the first, 15.6% for the second.

First: O=C(CN1CCN(c2ncccn2)CC1)N1CCCC1.O=C(O)C(=O)O
Second: O=C(CCN1CCN(c2ccccn2)CC1)Nc1ccc(F)cc1
The “hERG current change (%, negative = inhibition) at 1uM” value of the first is higher: 6.88% for the first, -9.5% for the second.

Compared with `Cc1ccc(CNc2nc(-c3cccnc3)nc3ccccc23)cc1`, `Cc1ccc(CNC(=O)CSCc2ccccc2)cc1` is higher in “hERG current change (%, negative = inhibition) at 1uM” value: 11.3% for the first, 24.3% for the second.

First: O=C(CCNS(=O)(=O)c1ccc(Br)cc1)NCC1CCCO1 (stereo not shown)
Second: CCOC(=O)N1CCN(S(=O)(=O)c2ccc(C)cc2)C1
The “hERG current change (%, negative = inhibition) at 1uM” value of the first is higher: 13.9% for the first, 11.9% for the second.

Compared with `Cc1cc2nc3c(=O)n(CCc4ccccc4)c(=O)[nH]c3nc2cc1N`, `CC(C)CN(C(=O)C1CC1)c1c(N)n(Cc2ccccc2)c(=O)[nH]c1=O` is higher in “hERG current change (%, negative = inhibition) at 1uM” value: 4.29% for the first, 23% for the second.

First: O=c1cc(-c2ccccc2Cl)oc2cc(O)cc(O)c12
Second: O=C(O)c1cc(-c2ccccc2Cl)n[nH]1
The “hERG current change (%, negative = inhibition) at 1uM” value of the first is higher: 15.1% for the first, 3.35% for the second.

Going from `Cc1cc(C(=O)OC(C)C(=O)N2CCc3ccccc32)ccc1[N+](=O)[O-]` (stereo not shown) to `CCOc1ccc(C(=O)NC(=S)Nc2cc(C)ccn2)cc1[N+](=O)[O-]`, the “hERG current change (%, negative = inhibition) at 1uM” value rises from -7.26% to 14%.

Going from `CCc1ccc(N(CC(=O)NC2CCCC2)S(=O)(=O)c2c(C)noc2C)cc1` to `O=C(NCC1OCCCN1S(=O)(=O)c1cc(F)ccc1F)C(=O)NC1CCCCC1` (stereo not shown), the “hERG current change (%, negative = inhibition) at 1uM” value rises from 0.971% to 6.9%.

Going from `O=C(c1cc2c(=O)n3ccccc3nc2s1)N1CCc2ccccc2C1` to `CC(=O)N(Cc1cccnc1)Cc1cc2ccccc2[nH]c1=O`, the “hERG current change (%, negative = inhibition) at 1uM” value rises from 7.55% to 8.07%.

Compared with `O=C(OC1CCCCC1=O)c1cccc(S(=O)(=O)N2CCOCC2)c1` (stereo not shown), `CCCCCNC(=O)Cc1ccc(S(=O)(=O)N2CCOCC2)s1` is higher in “hERG current change (%, negative = inhibition) at 1uM” value: 10.4% for the first, 13% for the second.

Compared with `COc1cccc(-n2c(=S)[nH]c3ccccc3c2=O)c1`, `COc1ccccc1NC(=O)c1cc2ccccc2o1` is higher in “hERG current change (%, negative = inhibition) at 1uM” value: 13.6% for the first, 23.1% for the second.

Compared with `c1cncc(-c2noc(-c3ccco3)n2)c1`, `O=S(=O)(Cc1ccccc1)Cc1cnc(Cl)s1` is higher in “hERG current change (%, negative = inhibition) at 1uM” value: 7.71% for the first, 8.35% for the second.

Going from `CN(O)/C=N/C(=S)Nc1ccc(Cl)cc1Cl` to `CC(=O)NC(CCS(C)(=O)=O)C(=O)Nc1cccc(Cl)c1Cl` (stereo not shown), the “hERG current change (%, negative = inhibition) at 1uM” value rises from 15% to 19.7%.

First: O=C(Cc1cccc2ccccc12)N/N=C/C=C/c1cccc([N+](=O)[O-])c1
Second: O=C(Cc1cccc2ccccc12)NN1C(=O)C2C(C1=O)C1C=CC2C12CC2 (stereo not shown)
The “hERG current change (%, negative = inhibition) at 1uM” value of the first is lower: 6.42% for the first, 7.67% for the second.

Going from `COC(=O)CC1C(=O)NCCN1C(=S)NC(=O)CCc1ccccc1` (stereo not shown) to `COC(=O)C1=C(C)N(CCCC(=O)O)C(=O)NC1c1ccc(OC)cc1` (stereo not shown), the “hERG current change (%, negative = inhibition) at 1uM” value rises from 10.7% to 10.9%.

Compared with `CC(=O)c1cc(-c2ccccc2)n(CC(=O)NC(C)(C)C)c1C`, `COC(=O)c1cc2ccsc2n1CC(=O)N(C)c1ccccc1` is higher in “hERG current change (%, negative = inhibition) at 1uM” value: 9.66% for the first, 10.1% for the second.

First: CCN1C(=O)c2cccc3c(Cl)ccc1c23
Second: Cc1cccc(C)c1OC(=O)CSc1nnc(-c2ccccc2O)o1
The “hERG current change (%, negative = inhibition) at 1uM” value of the first is higher: 2.91% for the first, -3.71% for the second.

First: Cc1cc(Nc2ccc(N3CCC(C)CC3)cc2)n2ncnc2n1
Second: Clc1ccc(-c2cc3ccccc3nc2N2CCCC2)cc1
The “hERG current change (%, negative = inhibition) at 1uM” value of the first is lower: 4.95% for the first, 5.64% for the second.

Compared with `Cc1csc(NC(=O)CNS(=O)(=O)c2cccs2)n1`, `COc1ccccc1OC(C)C(=O)Nc1ccc(S(=O)(=O)Nc2nccs2)cc1` (stereo not shown) is lower in “hERG current change (%, negative = inhibition) at 1uM” value: 18.6% for the first, -2.33% for the second.

Going from `CCOCCCn1c(=S)[nH]c2ncccc2c1=O` to `COc1ccccc1-n1c(O)c(C=NCCCn2ccnc2)c(=O)[nH]c1=O`, the “hERG current change (%, negative = inhibition) at 1uM” value rises from 14.7% to 14.8%.

Going from `CCOC(=O)c1c(-c2ccccc2)oc2ccc(O)c(CN3CCN(C)CC3)c12` to `Cc1cc(=O)oc(C)c1C(=O)OCC(=O)c1ccc(Cl)cc1`, the “hERG current change (%, negative = inhibition) at 1uM” value falls from -3.04% to -3.08%.

First: C=CCN(CC=C)C(=S)NCCc1ccc(OC)c(OC)c1
Second: CCc1ccc2c(CN3CCc4cc(OC)c(OC)cc4C3)cc(=O)oc2c1
The “hERG current change (%, negative = inhibition) at 1uM” value of the first is higher: 6.97% for the first, -12.7% for the second.

First: CCCN1Cc2cccc(C(=O)NCc3cccs3)c2C1=O
Second: O=C(CCCn1c(=O)c2ccccc2n(Cc2ccccc2)c1=O)NCc1ccco1
The “hERG current change (%, negative = inhibition) at 1uM” value of the first is lower: 1.02% for the first, 4.34% for the second.

First: O=Cc1ccc(O)c(O)c1
Second: Cc1cc(C(=O)N/N=C/c2ccc(O)c([N+](=O)[O-])c2)n[nH]1
The “hERG current change (%, negative = inhibition) at 1uM” value of the first is higher: 12.5% for the first, 2.81% for the second.

First: COc1ccc(/C=C/C(=O)Nc2ccccc2C(F)(F)F)cc1
Second: Cc1ccc(OCc2nnc(SC(C)C(=O)O)n2Cc2ccccc2)cc1 (stereo not shown)
The “hERG current change (%, negative = inhibition) at 1uM” value of the first is lower: 8.11% for the first, 12% for the second.

First: O=C(NC(CO)Cc1ccccc1)c1ccccc1 (stereo not shown)
Second: CN(Cc1ccccc1)C(=O)COC(=O)c1ccc2c(c1)OCO2
The “hERG current change (%, negative = inhibition) at 1uM” value of the first is lower: 7.1% for the first, 7.97% for the second.

Going from `CCCCCN(C(=O)CCC(=O)OCC(=O)N(C)c1ccccc1)c1c(N)n(CCCC)c(=O)[nH]c1=O` to `Cc1ccc(C(C)C)c(OCC(=O)NNC(=O)CC2OC(=O)c3ccccc32)c1` (stereo not shown), the “hERG current change (%, negative = inhibition) at 1uM” value falls from 6.11% to -5.53%.

Compared with `O=C1CCCCN1CCC(=O)N1CCCC(Nc2ccc(F)c(F)c2)C1` (stereo not shown), `O=C(NCCn1cccn1)C1CCC(=O)N(CC2CCCCC2)C1` (stereo not shown) is lower in “hERG current change (%, negative = inhibition) at 1uM” value: 5.61% for the first, 4.12% for the second.

Going from `CCOc1cc2c(C)cc(=O)oc2cc1Cl` to `CCn1c(SCC(=O)Nc2ncc(C(F)(F)F)cc2Cl)nnc1-c1cccc(C)c1`, the “hERG current change (%, negative = inhibition) at 1uM” value falls from 5.82% to -6.42%.

Going from `COc1ccc([N+](=O)[O-])cc1-c1nc2ccccc2nc1-c1ccccc1` to `COc1cccc(CNc2ccc3c(c2)nc(C)n3C)c1OC`, the “hERG current change (%, negative = inhibition) at 1uM” value falls from 13.4% to 10.1%.

Compared with `CCOC(=O)CNC(=O)CSc1nc2sc(C)c(C)c2c(=O)n1C`, `CC#CCN1c2ccccc2[C@]23C[C@@H](C(=O)OC)N(C(=O)OCC)C2=NC(C(=O)OC)=C(C(=O)OC)[C@H]13` is higher in “hERG current change (%, negative = inhibition) at 1uM” value: 11.6% for the first, 14.6% for the second.

Compared with `O=C(CN1CCCC1)Nc1ccc(-c2nc3cc(NC(=O)CN4CCCC4)ccc3o2)cc1`, `O=C(c1ccc(OC2CCN(CCc3ccccc3)CC2)cc1)N1CCCC(CO)C1` (stereo not shown) is lower in “hERG current change (%, negative = inhibition) at 1uM” value: 9.49% for the first, -1.57% for the second.

Going from `CC1=C(C(=O)Nc2cccc(C(=O)NC(C)C)c2)SCCO1` to `O=C(O)Cc1csc(Nc2cccc(Cl)c2)n1`, the “hERG current change (%, negative = inhibition) at 1uM” value falls from 17.8% to 5.87%.

Compared with `Cc1ccc(NC(=O)CCC(=O)OCCCC(F)(F)C(F)(F)F)cc1`, `COc1ccc(/C=N/OCC(=O)Nc2ccc3c(c2)OCO3)c(OC)c1` is higher in “hERG current change (%, negative = inhibition) at 1uM” value: -2.68% for the first, 8.67% for the second.

Compared with `O=C(CCNC(=O)Cn1ccc2ccccc2c1=O)NCc1ccc(F)cc1Cl`, `COc1ccc(C(=O)N2CCN(S(=O)(=O)c3ccc(F)cc3)CC2)cc1OC` is higher in “hERG current change (%, negative = inhibition) at 1uM” value: 8.73% for the first, 13.6% for the second.

First: O=C(OCC(=O)C12CC3CC(CC(C3)C1)C2)c1cccnc1
Second: COc1cc(C(=O)N2CCC3(CC2)NCCc2[nH]cnc23)cc(OC)c1OC
The “hERG current change (%, negative = inhibition) at 1uM” value of the first is lower: 10.3% for the first, 14.6% for the second.

Going from `CCOc1ccc(NS(=O)(=O)c2ccc(C(=O)N3CC(C)OC(C)C3)cc2)cc1` (stereo not shown) to `Br.C=CCn1c(C)csc1=Nc1ccccc1C`, the “hERG current change (%, negative = inhibition) at 1uM” value falls from 10.4% to 8.43%.

In the case of `CCCCCCCC/C=C\CCCCCCCC(=O)NCCO`, the “hERG current change (%, negative = inhibition) at 1uM” value is reported as 17.9%.
